Data as given in PubChem BioAssay AID1346428 (National Center for Advancing Translational Sciences (NCATS), 2018).
Out of some 48,000 compounds screened, about 1,200 (2.5%) were called active. About 2% were inconclusive and are not listed.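 The calls were made as follows: active = activation of at least 60% and not above a set upper limit (about 1 call in 100 departs from these limits); inconclusive = activation of 40% to 60%, or above that upper limit; inactive = activation under 40%.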 Some of the results follow.

target: Probable G-protein coupled receptor 32 (Homo sapiens) (UniProt O75388); assay: qHTS for Agonists of Human Resolvin D1 Receptor DRV1; conditions: CHO-K1 GPR32 beta-arrestin PathHunter luminescence, 90 min; at 76.9 µM; hits give high values; zero percent set by DMSO-only wells; also: 0% is about no effect
How it was run: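 Luminescent readout of beta-Gal complementation quantifies ligand-induced beta-arrestin association with GPR32 in CHO-K1 cells; 90 min compound incubation at 37 °C, detection 1 h at room temperature.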

Sequence of UniProt O75388 (O75388 whole entry, looked up): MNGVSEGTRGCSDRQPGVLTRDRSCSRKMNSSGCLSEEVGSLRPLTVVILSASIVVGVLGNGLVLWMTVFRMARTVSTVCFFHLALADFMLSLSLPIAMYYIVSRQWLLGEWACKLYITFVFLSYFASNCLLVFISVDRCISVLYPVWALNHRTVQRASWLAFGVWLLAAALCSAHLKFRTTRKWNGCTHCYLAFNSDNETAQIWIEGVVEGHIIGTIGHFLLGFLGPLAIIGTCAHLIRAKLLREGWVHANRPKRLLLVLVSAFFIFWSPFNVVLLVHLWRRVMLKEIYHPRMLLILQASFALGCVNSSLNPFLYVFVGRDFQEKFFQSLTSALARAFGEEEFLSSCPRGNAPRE

SMILES	activation
Cc1ccc(S(=O)(=O)c2nnn3c2nc(NCc2cccs2)c2sccc23)cc1	inactive: -7.41%
CCn1nc(C)c2c(-c3ccccc3)cc(=O)n(C(C)C(=O)NCc3ccccc3OC)c21 (stereo unspecified)	inactive: -6.35%
COc1ccc(C(=O)Nc2ccc3c(c2)CCCN3S(=O)(=O)c2ccc(C)cc2)c(OC)c1	inactive: -27.2%
CCc1ccc(S(=O)(=O)c2cn(C)c3cc(N4CCCC4)c(F)cc3c2=O)cc1	inactive: 2.93%
COC(=O)c1nnn(-c2ccc(Br)cc2)c1C(=O)OC	inactive: -0.836%
O=C(NCc1ccco1)c1ccc2c(c1)N(Cc1ccc(Cl)cc1)C(=O)c1ccccc1S2(=O)=O	inactive: -17.7%
COc1cccc(NC(=O)C2CCCN(S(=O)(=O)c3cccc4nonc34)C2)c1 (stereo unspecified)	inactive: 48.6%
Cc1cn2c(=O)c(S(=O)(=O)Nc3ccc(F)cc3F)c(C)nc2s1	inactive: 3.14%
CCOC(=O)CC(NC(=O)CCc1c(C)nc2ncnn2c1C)c1ccc(C)cc1 (stereo unspecified)	inactive: -3.28%
CCOc1ccc(C(=O)NCCc2csc(-c3cccc(F)c3)n2)cc1OCC	inactive: 3.05%
CN(Cc1ccccc1)c1ccc(-c2nc(-c3ccncc3)no2)cc1[N+](=O)[O-]	inactive: 13.3%
Cc1cc(C)cc(C(=O)NCC(c2ccc(N(C)C)cc2)N2CCCC2)c1 (stereo unspecified)	inactive: -20.4%
Oc1ccccc1Nc1nc2ccccc2n2nnnc12	inactive: -18.1%
O=C(NCc1ccc(Cl)cc1)c1ccc(Cn2c(=O)c3cccn3c3cccnc32)cc1	inactive: -7.23%
O=C1CCc2cc(S(=O)(=O)NC(C(=O)Nc3cccc(F)c3)c3ccccc3)ccc2N1 (stereo unspecified)	inactive: 7.27%
COc1ccc(-c2c(C)c3ccc(O)c(CN4CCCC(C)C4)c3oc2=O)cc1OC (stereo unspecified)	inactive: -23.1%
COc1ccc(S(=O)(=O)N2CCN(Cc3nc4ccc(C)cc4o3)CC2)cc1	inactive: -8.55%
O=C(Cn1c(=O)n(Cc2nc(-c3ccccc3)no2)c(=O)c2ccccc21)Nc1cccc(Cl)c1	inactive: 8.96%
Cc1ccc(C)c(Nc2nnc(-c3ccc(C)c(S(=O)(=O)NCC4CCCO4)c3)c3ccccc23)c1 (stereo unspecified)	inactive: -9.07%
CCOc1ccc(N2C(=O)c3[nH]nc(-c4ccc(OC)cc4)c3C2c2cccs2)cc1 (stereo unspecified)	inactive: 17.3%
COc1ccc(-c2nnc(SCC(=O)Nc3ccc(C)c(C)c3)s2)cc1	active: 115%

SMILES	activation
COCCCNC(=O)c1ccc2c(c1)N(Cc1ccccc1F)C(=O)c1ccccc1S2=O (stereo unspecified)	inactive: -28%
COc1ccc(O)c(C2=Nc3ccccc3N=C(c3ccccc3)C2)c1	inactive: -5.83%
COc1ccc(-c2noc(CSc3nnc(C)n3-c3cccc(C)c3)n2)cc1	inactive: 8.23%
COc1ccccc1NC(=O)c1oc2ccccc2c1NC(=O)Cc1ccccc1	inactive: 3.24%
CCOC(=O)c1nc(Nc2ccc(C(=O)OC(C)C)cc2)c2ccccc2n1	inactive: 32.2%
CNC(=O)c1ccc2c(c1)N(Cc1cc(C)ccc1C)C(=O)c1ccccc1S2	inactive: -35%
O=C(CN1C(=O)CC(c2ccccc2)=Nc2ccccc21)Nc1ccc(Br)cc1	inactive: -24.5%
COc1ccc(CNC(=O)c2ccc(-c3nc(CSc4ccc(C)cc4)c(C)o3)cc2)c(OC)c1	inactive: -4.86%
Cc1cccc(CCNC(=O)c2cc3c(s2)-c2c(C)cccc2OC3)c1	inactive: -6.78%
O=C(NCCc1ccccc1)c1ccc(Nc2nc3ccccc3n3nnnc23)cc1	inactive: 6.42%
CCCN1CCN(C(=O)Cn2c(-c3cccs3)cc3cc(F)ccc32)CC1	inactive: 17.2%
Cc1ccc2c(c1)N(C(=O)Nc1cccc3c1CCCC3)CCO2	inactive: -28.3%
COc1ccc(C2c3c(n(C)c4ccccc34)C(=O)N2CC(=O)Nc2cccc(Cl)c2)cc1 (stereo unspecified)	inactive: -19.9%
CCOC(=O)c1c(NC(=O)CSc2cn(CCNC(=O)c3ccc(OC)cc3)c3ccccc23)sc2c1CCCC2	inactive: -2.48%
Cc1ccccc1C(=O)Nc1cccc(OCc2cc(=O)n3cccc(C)c3n2)c1	inactive: -11.9%
Cc1cc(OC(C)C(=O)N(Cc2ccc(N(C)C)cc2)Cc2ccco2)ccc1Cl (stereo unspecified)	inactive: -27.4%
CC1CCCN(CCCNC(=O)c2ccc3c(c2)N(Cc2ccc(Cl)cc2)C(=O)c2ccccc2S3(=O)=O)C1 (stereo unspecified)	inactive: -25.5%
CCc1ccc(NC(=O)CN2C(=O)CSc3ccc(S(=O)(=O)N(C)C)cc32)cc1	inactive: -16.4%
Cc1ccc(C)c(NC(=O)Cn2cc(S(=O)(=O)Cc3cccc(Cl)c3)c3ccccc32)c1	inactive: -3.5%
O=C(NCc1ccccc1)c1ccc2c(c1)CCN2S(=O)(=O)c1ccc(Cl)cc1	inactive: -6.9%
